Test results published in PubChem BioAssay AID686979 (National Center for Advancing Translational Sciences (NCATS), 2013).
Several values for one entry are separate records, joined by “and”; a condition that tells them apart may be missing. Equal values may be shown once. In all, about 420,000 compounds went through this assay and about 50,000 (12%) were called active. Inconclusive results, whose numbers are uncertain, are shown with a selection of clear calls. Calls come from the whole dose curve; as a rule, active = well fitted inhibition curve with a large enough effect; inconclusive = small, poorly fitted or top-dose-only effect; inactive = flat fitted curve, though single readings scatter. Potencies beside an inconclusive call are fits to weak or partial responses and may not hold up.
% is set by controls: 0 for no effect and ±100 for the full control effect; potency is the fitted concentration of half-maximal effect; tags give direction and shape of the fitted curve.

Assay: qHTS for Inhibitors of human tyrosyl-DNA phosphodiesterase 1 (TDP1): qHTS in cells in presence of CPT; note: nearly all actives have a fitted effect of over 55% in size
Details: chicken DT40 Tdp1-/-;hTDP1 cells + 20 nM CPT, ATP luminescence, 48 h; activity change, negative = growth inhibition: at 46.2 µM (top of the series)
In short: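 Cell growth measured by CellTiter-Glo luminescence after a minimum 48 h, 37 C compound exposure with 20 nM CPT in Tdp1-knockout DT40 cells stably expressing hTDP1, seeded 400/well; qHTS titration format.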
In the case of `O=C(N/N=C/c1ccc([N+](=O)[O-])cc1)c1cccnc1`, the “activity change, negative = growth inhibition” value is reported as inactive: -21.4%. In the case of `OC1(c2ccc(F)cc2)CSC(=Nc2cccnc2)N1Cc1ccco1` (configuration not stated), the Potency is reported as inconclusive: 29.1 µM [inhibitor, single point]. With `COc1ccc(CNC(=O)C2CCN(S(=O)(=O)c3ccc(C)cc3)CC2)cc1` the Potency was inconclusive: 23.1 µM [inhibitor, single point]. With `Nc1ncnc(N)c1NC(=O)c1cc(Cl)c(OCc2ccccc2)c(Cl)c1` the “activity change, negative = growth inhibition” value was inactive: 6.61%. With `NC(N)=NCCCC(NC(=O)c1ccccc1)C(=O)Nc1ccc([N+](=O)[O-])cc1` (configuration not stated) the “activity change, negative = growth inhibition” value was inactive: 0.0194%. With `CCOC(=O)CSc1nc(C)c(C(C)=O)cc1C#N` the “activity change, negative = growth inhibition” value was inactive: -5.43%. For `COc1ccccc1NC(=O)COc1ccc2c(c1)OCO2`, the “activity change, negative = growth inhibition” value was inactive: -7.44%. With `COc1ccc(CNc2cc(-c3ccoc3)ncn2)c(OC)c1` the Potency was inconclusive: 29.1 µM [inhibitor, single point]. With `COc1cc(F)ccc1-c1csc(C(O)c2ccc(F)cc2)n1` (configuration not stated) the Potency was active: 23.1 µM. For `O=C(OC1CCOC1=O)c1cc(-c2cccs2)nc2ccccc12` (configuration not stated), the “activity change, negative = growth inhibition” value was inactive: -2.71%. With `COc1ccc(C(=O)NCC(c2ccc3c(c2)OCO3)N2CCN(c3ccc(OC)cc3)CC2)cc1` (configuration not stated) the Potency was active: 3.26 µM. In the case of `Nc1cc(N)nc(SCC(=O)Nc2cc(S(=O)(=O)N3CCOCC3)ccc2Cl)n1`, the Potency is reported as inconclusive: 16.4 µM [inhibitor, single point]. For `COc1ccc(CCNc2ncnc3c2c(C)c(C)n3CCO)cc1OC`, the Potency was active: 20.6 µM. For `Cc1ccc(NC(=O)NCCCCc2ccccc2)cc1`, the Potency was inconclusive: 29.1 µM [inhibitor, single point]. For `CCOc1ccc(CCNC(=O)c2cccc(-n3c(C)nc4cccnc43)c2)cc1`, the Potency was active: 23.1 µM. With `COc1ccc(-c2nnc3c4ccccc4c(-c4ccccc4)nn23)cc1` the “activity change, negative = growth inhibition” value was inactive: 10.9%. With `CCOC(=O)Nc1ccc(S(=O)(=O)N2CCC(c3nc4ccccc4[nH]3)CC2)cc1` the Potency was inconclusive: 29.1 µM [inhibitor, single point]. For `COC(=O)c1c(N)n(-c2ccc(OC)c(Cl)c2)c2nc3ccccc3nc12`, the Potency was inconclusive: 9.2 µM [inhibitor, partial curve]. For `COc1ccc(S(=O)(=O)N2CCCCC2)cc1NC(=O)c1ccc2ccccc2n1`, the Potency was active: 14.6 µM. In the case of `O=C(COc1ccc(Cl)cc1)NCCc1csc(-c2ccc(F)cc2)n1`, the Potency is reported as active: 16.4 µM. In the case of `CCOc1cc(/C=N/NC(=O)COc2ccc(C)cc2)ccc1OC(=O)c1cccs1`, the Potency is reported as inconclusive: 32.6 µM [inhibitor, partial curve, poor fit]. For `CSc1nsc(SCC(=O)N2CCCc3ccccc32)n1`, the Potency was inconclusive: 11.6 µM [inhibitor, partial curve]. In the case of `COc1ccc(NC(=O)CSc2nnc(-c3ccoc3C)n2CCc2ccccc2)cc1`, the Potency is reported as inconclusive: 20.6 µM [inhibitor, single point]. For `CC1CC(C)(C)CC2(C1)NC(=O)N(CC(=O)Nc1cc([N+](=O)[O-])ccc1F)C2=O` (configuration not stated), the Potency was active: 14.6 µM. With `COc1ccccc1C(=O)C1CCCN(C(=O)c2cccc(-n3cccn3)c2)C1` (configuration not stated) the Potency was inconclusive: 23.1 µM [inhibitor, single point]. In the case of `O=S(=O)(Cc1ccccc1)C1CCCCC1O` (configuration not stated), the “activity change, negative = growth inhibition” value is reported as inactive: 6.45%. In the case of `O=c1[nH]c(=S)n2c(c1-c1ccccc1)OC(CBr)C2` (configuration not stated), the Potency is reported as inconclusive: 18.4 µM [inhibitor, single point]. For `Cc1ccc(Nc2cc(C)c3ccc(O)cc3n2)cc1C`, the Potency was active: 18.4 µM. With `CCOC(=O)c1nnn(CC(=O)NC(=O)Nc2cccc(CC)c2)c1C(=O)OCC` the Potency was inconclusive: 9.2 µM [inhibitor, partial curve] and inconclusive: 14.6 µM [inhibitor, single point]. With `O=C1Nc2ccccc2N=C(c2ccc3c(c2)OCO3)C1N(C(=O)c1ccnc2ccccc12)c1ccccc1` (configuration not stated) the Potency was active: 20.6 µM. For `CCN(CC)C(=O)c1cc(C(C)(C)C)c(O)c(C(C)(C)C)c1`, the Potency was inconclusive: 20.6 µM [inhibitor, single point]. For `O=C(Nc1ccc2c(c1)OCO2)C1CC1(Cl)Cl` (configuration not stated), the Potency was inconclusive: 29.1 µM [inhibitor, single point]. With `CC(=O)c1cccc(NC(=O)c2nc3ccccc3nc2N2CCCCC2)c1` the Potency was inconclusive: 29.1 µM [inhibitor, single point]. For `Cc1cc(C)c2cc(C(=O)N3CCc4ccccc4C3)[nH]c2c1`, the Potency was inconclusive: 16.4 µM [inhibitor, partial curve, poor fit]. In the case of `COc1cccc(CN2CC(C(=O)NCCC3=CCCCC3)CCC2=O)c1` (configuration not stated), the Potency is reported as inconclusive: 11.6 µM [inhibitor, partial curve]. With `O=C(/C=C/c1ccccc1)CC(=O)c1ccccc1` the Potency was inconclusive: 29.1 µM [inhibitor, single point]. With `Cc1ccc(-c2nc(CNC(=O)c3cc(C)on3)cs2)cc1` the Potency was inconclusive: 25.9 µM [inhibitor, single point]. For `CC(C)C[C@H](NC(=O)[C@H](CCCCN)NC(=O)[C@H](CCCNC(=N)N)NC(=O)[C@H](C)NC(=O)[C@H](CO)NC(=O)[C@H](CCCCN)NC(=O)[C@H](CCCNC(=N)N)NC(=O)[C@H](C)NC(=O)CNC(=O)[C@@H](NC(=O)[C@H](Cc1ccccc1)NC(=O)CNC(=O)CNC(=O)[C@@H](N)Cc1ccccc1)[C@H](C)O)C(=O)N[C@@H](C)C(=O)N[C@@H](CC(N)=O)C(=O)N[C@@H](CCC(N)=O)C(=O)O`, the activity change, negative = growth inhibition was inactive: 0.3% [at 4.12 µM]. For `COCCN(CCOC)C(=O)C1CCCN(S(=O)(=O)c2ccc(NC(=O)OC)cc2)C1` (configuration not stated), the Potency was inconclusive: 29.1 µM [inhibitor, single point]. With `Fc1ccc(-c2nc3ccc(Cl)cn3c2Cc2ccccc2C(F)(F)F)cc1` the Potency was inconclusive: 23.1 µM [inhibitor, single point]. For `Nc1ccc2nc(CN3CCOCC3)[nH]c2c1`, the “activity change, negative = growth inhibition” value was inactive: -19.9%. For `CN(C)S(=O)(=O)c1ccc(N2CCN(S(=O)(=O)c3ccc(F)cc3)CC2)c(Cl)c1`, the Potency was active: 18.4 µM. In the case of `COc1ccc(OC)c(CNC(=O)C2CCN(c3ncnc4c3nc3n4CCCCC3)CC2)c1`, the “activity change, negative = growth inhibition” value is reported as inactive: 9.35%. In the case of `CCc1noc(C)c1C(=O)Nc1cc(S(=O)(=O)N(CC)CC)ccc1N1CCOCC1`, the “activity change, negative = growth inhibition” value is reported as inactive: -1.86%. In the case of `COc1cccc(CNc2nc(C(F)(F)F)nc3ccccc23)c1`, the Potency is reported as inconclusive: 16.4 µM [inhibitor, single point]. In the case of `Cc1ccc(-n2c(C(C)n3nc(C)c([N+](=O)[O-])c3C)n[nH]c2=S)cc1` (configuration not stated), the Potency is reported as inconclusive: 1.46 µM [inhibitor, partial curve, poor fit]. In the case of `C[C@H](CO)N1C[C@H](C)[C@@H](CN(C)Cc2ccccc2)Oc2c(NC(=O)C3CC3)cccc2C1=O`, the Potency is reported as inconclusive: 29.1 µM [inhibitor, single point]. With `COCCCNS(=O)(=O)c1ccc(SC)cc1` the “activity change, negative = growth inhibition” value was inactive: 1.84%. With `COC(=O)[C@H](CC(C)C)N(Cc1ccccc1)S(=O)(=O)N(Cc1ccccc1)[C@@H](CC(C)C)C(=O)OC` the Potency was active: 20.6 µM. For `C=CCC1c2cccc(C(=O)OC)c2C(=O)N1c1ccccc1` (configuration not stated), the Potency was inconclusive: 29.1 µM [inhibitor, single point]. With `CC(Oc1ccccc1)C(=O)N1CCCc2ccccc21` (configuration not stated) the activity change, negative = growth inhibition was inconclusive: -30.2% [inhibitor]. For `COC(=O)CCC(=O)OC1(C)C(=O)C2=CN(c3ccc(OC)cc3)C(c3ccc(OC)cc3)=CC2=C(Br)C1=O` (configuration not stated), the Potency was inconclusive: 29.1 µM [inhibitor, single point]. In the case of `COc1ccccc1/C=N/N1CCN(Cc2ccccc2Cl)CC1`, the “activity change, negative = growth inhibition” value is reported as inactive: 11.4%. With `COc1cc(OC)cc(C(C(=O)NCc2ccccc2)N(Cc2ccco2)C(=O)c2ccno2)c1` (configuration not stated) the Potency was inconclusive: 20.6 µM [inhibitor, partial curve]. For `CCOC(=O)C1=C(C)NC(C)=C(C(=O)OCC)C1c1ccc(O)cc1`, the Potency was inconclusive: 16.4 µM [inhibitor, single point]. For `O=C1CC(c2ccc(F)cc2)Cc2nc(N3CCN(c4ccccc4)CC3)ncc21` (configuration not stated), the Potency was inconclusive: 29.1 µM [inhibitor, single point]. With `c1ccc2c(-c3cccc4nccn34)cncc2c1` the Potency was inconclusive: 23.1 µM [inhibitor, single point]. In the case of `O=S(=O)(c1ccc(Br)cc1)N1CCN=C1SCc1cccc(F)c1`, the Potency is reported as inconclusive: 29.1 µM [inhibitor, single point]. For `Cn1c2ccccc2c(=O)c2c(=O)n(-c3ccccc3)c(C3CCCCC3)nc21`, the Potency was inconclusive: 29.1 µM [inhibitor, single point]. For `CCc1c(C)nc2ncnn2c1N1CCC(C(=O)Nc2ccc(C)cc2)CC1`, the Potency was active: 20.6 µM. With `COc1ccc(C(=O)NC(=S)Nc2ccc(N3CCCC3)cc2)cc1OC` the Potency was inconclusive: 23.1 µM [inhibitor, partial curve, poor fit]. For `CC1CCCC(NC(=O)CSc2ccc(F)cc2)C1C` (configuration not stated), the “activity change, negative = growth inhibition” value was inactive: -1.63%. In the case of `O=C(Nc1ccc(Cl)cc1Cl)NC1CCN(S(=O)(=O)c2ccc(F)cc2)CC1`, the Potency is reported as inconclusive: 18.4 µM [inhibitor, single point]. With `Cc1ccc(C2=NN(CC(=O)NCCc3ccc(Cl)cc3)C(=O)CC2)cc1` the Potency was inconclusive: 23.1 µM [inhibitor, single point]. For `CN(C)CCN(Cc1cc2cc3c(cc2[nH]c1=O)OCO3)C(=S)NCC1CCCO1` (configuration not stated), the “activity change, negative = growth inhibition” value was inactive: 17.8%. For `COC(=O)c1ccc(NC(=O)c2cn(-c3ccccc3)nc2-c2ccncc2)cc1`, the Potency was inconclusive: 29.1 µM [inhibitor, single point]. In the case of `Cc1nc2ccc(NC(=O)c3ccc(C)c(S(=O)(=O)N4CCOCC4)c3)cc2s1`, the Potency is reported as active: 18.4 µM.
